# Source: the supplement of paper PMC10369915
# This is one part of the list. No stated cut-off is given here; in the data, active = 3.2 or more and inactive = the rest. Only a few entries rise above the background.
# Experiments:
# Assay in all cases: enrichment score (SH2-bound / input frequency) (ratio); bacterial display of known human phosphotyrosine sites (pTyr-Var adds point mutants) read by sequencing; higher = stronger binding; tyrosines were phosphorylated by kinases first
# Settings in all cases: peptide library: pTyr-Var
# SHP2 C-SH2 domain E139D = target: SHP2 C-SH2 domain E139D
# [1] = target: SHP2 C-SH2 domain wild-type
# SHP2 N-SH2 domain L43F = target: SHP2 N-SH2 domain L43F
# SHP2 N-SH2 domain T42A = target: SHP2 N-SH2 domain T42A
# SHP2 N-SH2 domain T52S = target: SHP2 N-SH2 domain T52S
# [2] = target: SHP2 N-SH2 domain wild-type
# 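Further: displayed peptides selected on beads carrying the immobilized SH2 domain, with library peptides lacking any tyrosine serving as negative controls.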
Binder,enrichment score (SHP2 C-SH2 domain E139D),enrichment score [1],enrichment score (SHP2 N-SH2 domain L43F),enrichment score (SHP2 N-SH2 domain T42A),enrichment score (SHP2 N-SH2 domain T52S),enrichment score [2]
KTAFSYTSSST [SIM1_Y356_P352T],inactive: 0.977,inactive: 0.582,inactive: 0.879,inactive: 0.788,inactive: 0.74,inactive: 0.84
HLMLQYDAVVN [SLC25A32_Y152_R147H],inactive: 1.6,inactive: 1.5,inactive: 1.22,inactive: 1.39,inactive: 1.09,inactive: 1.21
LRYDSYSSYCN [SLC20A2_Y433],inactive: 0.897,inactive: 1.02,inactive: 0.838,inactive: 0.835,inactive: 0.78,inactive: 1.31
QYQLKYSETPF [SIX6OS1_Y129],inactive: 0.768,inactive: 0.452,inactive: 0.56,inactive: 0.726,inactive: 0.665,inactive: 0.621
IVFVICDEVVK [SLC25A1_Y297_Y297C],inactive: 2.15,inactive: 1.94,inactive: 1.69,inactive: 1.8,inactive: 1.83,inactive: 2.12
LTGIAYGLPHW [SLC22A14_Y291_S292G],inactive: 0.931,inactive: 0.987,inactive: 3.16,active: 3.77,active: 4.1,inactive: 1.68
IYKAAYFGVYD [SLC25A4_Y191_R188K],inactive: 1.01,inactive: 1,inactive: 1.35,inactive: 1.16,inactive: 1.52,inactive: 1.15
LLREWYLPDPF [SIX3_Y225_Q227P_YF],inactive: 2.17,inactive: 2.02,inactive: 2.19,inactive: 2.12,inactive: 2.22,inactive: 2.05
AIGFEYSEINI [SIGLEC12_Y588_YF],inactive: 0.849,inactive: 0.774,inactive: 1.08,inactive: 0.749,inactive: 0.84,inactive: 0.997
VFLGAYDRFLP [SLC22A5_Y486_YF],inactive: 1.27,inactive: 1.59,inactive: 1,inactive: 1.2,inactive: 1.24,inactive: 1.23
KPAFSYTSSST [SIM1_Y356],inactive: 0.846,inactive: 0.628,inactive: 0.682,inactive: 0.637,inactive: 0.695,inactive: 0.799
LRYDSYWSYCN [SLC20A2_Y433_S434W],inactive: 2.37,inactive: 2.37,inactive: 1.96,inactive: 1.69,inactive: 2.04,inactive: 2.27
RQNNSYTCYTA [SLC20A2_Y386_R382Q],inactive: 0.574,inactive: 1.4,inactive: 0.674,inactive: 0.805,inactive: 0.784,inactive: 1
AQESNYRLLRQ [SLC20A2_Y377_R382Q],inactive: 0.793,inactive: 1.06,inactive: 0.538,inactive: 0.506,inactive: 0.482,inactive: 0.94
CEHFSYYGMKA [SLC15A2_Y60_R57H],inactive: 1.3,inactive: 1.2,inactive: 1.06,inactive: 0.985,inactive: 1.02,inactive: 1.04
DSFSSYCNAVA [SLC20A2_Y436_YF],inactive: 1.09,inactive: 1,inactive: 0.813,inactive: 0.865,inactive: 0.949,inactive: 0.964
LSFSEYASVQV [SIRPA_Y496_P491L],inactive: 1.08,inactive: 1.02,inactive: 1.04,inactive: 1.3,inactive: 0.852,inactive: 1.04
CERFSYYGMKA [SLC15A2_Y60],inactive: 1.03,inactive: 0.996,inactive: 0.845,inactive: 0.863,inactive: 0.848,inactive: 0.977
ERFSFYGMKAV [SLC15A2_Y61_YF],inactive: 0.674,inactive: 0.878,inactive: 0.675,inactive: 0.72,inactive: 0.741,inactive: 0.914

Binder,enrichment score (SHP2 C-SH2 domain E139D),enrichment score [1],enrichment score (SHP2 N-SH2 domain L43F),enrichment score (SHP2 N-SH2 domain T42A),enrichment score (SHP2 N-SH2 domain T52S),enrichment score [2]
LLREWYVQDPF [SIX3_Y225_L226V_YF],inactive: 2.02,inactive: 1.9,inactive: 1.9,inactive: 2.01,inactive: 2.16,inactive: 1.77
LLREWYLPDPY [SIX3_Y225_Q227P],inactive: 2.97,inactive: 2.09,inactive: 2.06,inactive: 2.37,inactive: 2.22,inactive: 2.33
GQSKGYRPKLY [SIPA1L3_Y1376],inactive: 0.494,inactive: 0.44,inactive: 0.413,inactive: 0.439,inactive: 0.696,inactive: 0.566
IVFVIYDEVVK [SLC25A1_Y297],active: 3.84,inactive: 3,active: 3.54,active: 3.24,active: 3.67,inactive: 2.98
PTFENYANSTQ [SLC12A3_Y70_H69N_YF],inactive: 0.832,inactive: 0.419,inactive: 0.658,inactive: 0.335,inactive: 0.674,inactive: 0.927
VFLGAYDCFLP [SLC22A5_Y486_R488C_YF],inactive: 1.67,inactive: 1.36,inactive: 1.39,inactive: 1.35,inactive: 1.52,inactive: 1.23
QGIIIYKAAYF [SLC25A4_Y187_R188K],inactive: 0.856,inactive: 1.41,inactive: 2.25,inactive: 2.69,inactive: 2.53,inactive: 1.46
RLMLQYDAVVN [SLC25A32_Y152],inactive: 0.904,inactive: 0.977,inactive: 1.08,inactive: 1.01,inactive: 0.99,inactive: 1.11
PTFKHYANSTQ [SLC12A3_Y70_E68K_YF],inactive: 0.627,inactive: 0.742,inactive: 0.825,inactive: 0.551,inactive: 0.629,inactive: 0.786
KQFWRYFPGNL [SLC25A4_Y112_A114P],inactive: 2.32,inactive: 2.27,inactive: 1.8,inactive: 1.67,inactive: 1.91,inactive: 1.85
LRFDSYWSFCN [SLC20A2_Y433_S434W_YF],inactive: 1.38,inactive: 1.55,inactive: 1.4,inactive: 1.28,inactive: 1.36,inactive: 1.7
PTYKHYANSTQ [SLC12A3_Y70_E68K],inactive: 0.473,inactive: 0.423,inactive: 0.391,inactive: 0.494,inactive: 0.689,inactive: 0.767
ERFSYYGMKAV [SLC15A2_Y61],inactive: 1.06,inactive: 0.871,inactive: 0.899,inactive: 0.922,inactive: 1,inactive: 1.06
QFQLKYSETPF [SIX6OS1_Y129_YF],inactive: 1.03,inactive: 0.859,inactive: 0.939,inactive: 0.925,inactive: 0.802,inactive: 1.03
VYLGAYDCFLP [SLC22A5_Y486_R488C],inactive: 1.44,inactive: 1.53,inactive: 1.46,inactive: 1.45,inactive: 1.41,inactive: 1.4
RKVAQYMLENE [SLC16A6_Y224_E221V],inactive: 0.618,inactive: 0.585,inactive: 0.697,inactive: 0.627,inactive: 0.584,inactive: 0.631
QGIIIYKAAFF [SLC25A4_Y187_R188K_YF],inactive: 0.523,inactive: 0.663,inactive: 0.819,inactive: 1,inactive: 0.633,inactive: 0.733
LTGIAYSLPHW [SLC22A14_Y291],inactive: 1.26,inactive: 3.03,active: 7.2,active: 11.7,active: 9.62,inactive: 2.63
ALLVFYAATIA [SLC20A2_Y187_P184L],inactive: 1.54,inactive: 1.89,inactive: 1.84,inactive: 1.48,inactive: 1.77,inactive: 1.87
